# Out of some 350,000 compounds screened, about 9,900 (2.8%) were called active. Inconclusive means that the source gave no clear call. Such entries were picked first, then a sample of the others. Calls come from the whole dose curve; as a rule, active = well fitted activation curve with a large enough effect; inconclusive = small, poorly fitted or top-dose-only effect; inactive = no such curve, though single readings can be large or run the other way. Potencies of inconclusive entries are left out as doubtful fits.
# Assay: A quantitative high throughput screen for small molecules that induce DNA re-replication in MCF 10a normal breast cells. For activity, positive = re-replication: % of control where 0% means no effect. Note: nearly all actives have a fitted effect of over 50% in size.
# Conditions: MCF 10A DNA re-replication, Hoechst nuclear intensity, 48 h; activity, positive = re-replication: at 46.1 µM (top of the series)
# Potency is the fitted concentration of half-maximal effect; tags give direction and shape of the fitted curve.
SMILES,Potency,"activity, positive = re-replication"
Cc1ccc(NC(=S)/C(=C(\[O-])c2ccc(F)cc2)[n+]2ccccc2)cc1,"inconclusive [activator, partial curve, poor fit]",
NC(=S)NNC(=O)C12CC3CC(CC(C3)C1)C2,"inconclusive [activator, single point]",
COc1ccc(C(=O)c2ccc(OC)c(Br)c2)cc1Br,,inactive: -7.44%
COc1ccc(N2C(=O)c3ccc(C(=O)Nc4ccccc4OC)cc3C2=O)cc1,"inconclusive [activator, single point]",
CCCC(=Nc1ccccc1OC)C1=C(O)CC(c2ccccc2)CC1=O (centres undefined),"inconclusive [activator, single point]",
Cc1sc(NC(=O)c2ccc(OCC(C)C)cc2)c(C(N)=O)c1-c1ccc(Cl)cc1Cl,"inconclusive [activator, full curve, poor fit]",
CCN(CC)CCNC(=S)Nc1ccc2nc(N3CCN(CC)CC3)cc(C)c2c1,"inconclusive [activator, single point]",
Cc1ccc(NC(=O)CSc2ncccc2C(=O)Oc2cccc([N+](=O)[O-])c2)cc1Cl,"inconclusive [activator, single point]",
Cc1ccc(OCC(=O)N(Cc2nnc(-c3ccccc3Cl)o2)C2CC2)cc1C,,inactive: 7.3%
CC1(C)CC(CC(=O)O)C(=O)O1 (centres undefined),"inconclusive [activator, single point]",
CC(C)CN1CCC(=O)N(CCSc2ccccc2)CC1,,inactive: 13%
Cc1ccc(C(=O)OCC(=O)NC2CCCC2)cc1,,inactive: 6.43%
N#Cc1c(SCC(=O)Nc2nc3ccccc3s2)sc2c(O)cc(=O)[nH]c12,"inconclusive [activator, single point]",
COc1cc(-c2nc3cnccn3c2Nc2ccccc2)ccc1O,"inconclusive [activator, single point]",
Cc1ccc(S(=O)(=O)Nc2ccc3cn[nH]c3c2)cc1C,,inactive: 10.6%
COc1ccccc1-c1c(C)nn2c(N)c(-c3ccccc3)cnc12,"inconclusive [activator, single point]",
COc1ccc(/C=N\NC(=O)C2C(=O)NCC2c2ccccc2)cc1O (centres undefined),"inconclusive [activator, single point]",
COc1ccc(-n2c(COc3cccc4ccccc34)nnc2SCC#N)cc1,"inconclusive [activator, full curve]",
O=C(CCCN1C(=O)/C(=C/c2ccccc2Cl)SC1=S)Nc1cccnc1,"inconclusive [activator, full curve, poor fit]",
NC(=O)c1ccc(-n2nnnc2Oc2ccccc2)cc1,"inconclusive [activator, partial curve, poor fit]",
Cc1ccc(S(=O)(=O)CC(C)N2CCN(C3CCCCC3)CC2)cc1 (centres undefined),"inconclusive [activator, partial curve, poor fit]",
Cc1ccc(CNC(=O)CCNS(=O)(=O)c2ccc(C)cc2)cc1,"inconclusive [activator, partial curve]",

SMILES,Potency,"activity, positive = re-replication"
COc1cc(OC)cc(C(=O)NC(=S)N2CCN(c3ccc(C(F)(F)F)cc3[N+](=O)[O-])CC2)c1,"inconclusive [activator, partial curve, poor fit]",
Cc1onc(NC(=O)NC(=O)c2ccccc2F)c1Br,,inactive: -4.32%
Cc1cc(OCC(=O)N[C@@H](CSCc2ccccc2)C(=O)O)c2c(C)c(C)c(=O)oc2c1,,inactive: 19.3%
COc1cccc(CN2CCNC(=O)C2CC(=O)NC2CCCCCCC2)c1 (centres undefined),"inconclusive [activator, single point]",
CC(c1ccccc1)N1CC(C(=O)NC2CCCC2)CC1=O (centres undefined),"inconclusive [activator, full curve, poor fit]",
COCCCNC(=O)C[C@H]1C[C@H](C(=O)N2CCCCC2)[C@@]2(CCc3ccccc3)c3[nH]c4cc(-c5ccco5)ccc4c3CCN2C1=O,,inactive: -16.3%
Cc1cccc(C(=O)Nc2scc(-c3ccc(Br)cc3)c2C(=O)O)c1,"inconclusive [activator, single point]",
CCOC(=O)C1=CN(C(C)C)CCC1=O,"inconclusive [activator, partial curve, poor fit]",
COc1cccc(NC(=O)COc2ccc3c(c2)CCC3)c1,"inconclusive [activator, single point]",
COc1ccc(NC(=O)c2ccccc2NC(=O)CN2CCCCCC2)cc1,,inactive: 4.61%
CCOCCCn1c(=NC(=O)c2ccco2)c(C(=O)OCC)cc2c(=O)n3cccc(C)c3nc21,"inconclusive [activator, partial curve, poor fit]",
CCCCN(Cc1cc2cc(OC)ccc2[nH]c1=O)S(=O)(=O)c1ccc(C)cc1,"inconclusive [activator, single point]",
Cc1cccc(S(=O)(=O)N2CCC(CO)(Cc3ccccc3)CC2)c1,"inconclusive [activator, single point]",
O=C(c1cc(C2CC2)on1)N1CCN(C(c2ccccc2)c2ccccc2)CC1,,inactive: 12.5%
O=C(Cc1c[nH]c2ccccc12)OCCOC(=O)Cc1c[nH]c2ccccc12,"inconclusive [activator, single point]",
COc1ccc2cc(C(C)c3nc4ccccc4c(=O)n3N)ccc2c1 (centres undefined),"inconclusive [activator, single point]",
CCCCCCNS(=O)(=O)c1ccc(NC(=O)C2CCCO2)cc1 (centres undefined),,inactive: 2.27%
Oc1cccc(C(O)CNCc2ccc(OCc3ccc(Cl)cc3Cl)cc2)c1 (centres undefined),active: 14.6 µM,
COc1ccc(S(=O)(=O)N2CCc3ccccc32)cc1NC(C)=O,active: 8.2 µM,
CCOC(=O)C(Cc1ccc(O)cc1)Nc1nc2ccccc2o1 (centres undefined),,inactive: 3.5%
COc1cc(NC(=S)N2CCN(C/C=C/c3ccccc3)CC2)cc(OC)c1,,inactive: -3.92%
COc1cc2nc(-c3ccccc3C)oc(=O)c2cc1OC,"inconclusive [activator, full curve, poor fit]",
